# Source: the supplement of paper PMC4166925
# ± gives the standard deviation of the averaged measurements. Whole data set: some 33,000 sequences, median “E-score (dimensionless, -0.5 to 0.5)” near -0.049, cut for the highest 2% near 0.37. Some of the results follow.
# Test system: T1, PmTbr T-box DNA-binding domain (GST fusion)
# T1 sequence: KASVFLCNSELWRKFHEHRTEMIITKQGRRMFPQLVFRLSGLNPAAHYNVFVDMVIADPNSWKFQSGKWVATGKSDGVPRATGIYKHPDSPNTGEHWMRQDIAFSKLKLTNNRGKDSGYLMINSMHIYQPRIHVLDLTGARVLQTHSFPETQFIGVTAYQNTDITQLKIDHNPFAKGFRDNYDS
# Test: PBM E-score of 8-mer (E-score (dimensionless, -0.5 to 0.5)); Tbr is Tbrain of the sea star Patiria miniata (Pm) or the sea urchin Strongylocentrotus purpuratus (Sp); higher = stronger binding preference; most listed sequences are background and not binding sites
# Conditions: the construct has about 5 more residues each side
# Procedure, shortened: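 GST-fused Tbr T-box DNA-binding domains (the whole T-box plus about five flanking residues) were expressed in BL21 E. coli at 20 °C and purified by glutathione affinity chromatography. Universal Agilent oligonucleotide arrays were made double-stranded by primer extension, incubated with 200 nM protein in PBS (pH 7.5), then scanned and quantified. Every ungapped 8-mer was scored from probe intensities. The Universal PBM Analysis Suite gave each word an enrichment E-score, averaged over duplicate arrays.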
row,Sequence,PBM E-score of 8-mer
1,AACAAGGC,0.118 ± 0.11
2,CACGATTC,0.189 ± 0.0081
3,CACGTCAG,0.244 ± 0.011
4,ATAACTAA,-0.022 ± 0.026
5,ATGTTTAC,-0.0873 ± 0.024
6,CGTAGGAG,-0.0595 ± 0.057
7,ACTGGTCC,-0.4 ± 0.044
8,TCCATCAA,0.0136 ± 0.076
9,GGAGGTGA,0.4036 ± 0.0026
10,AAACCTTG,-0.132 ± 0.0072
11,GGCTGCAC,0.111 ± 0.035
12,GGCATTAA,-0.146 ± 0.0047
13,GATGCTTA,-0.19 ± 0.024
14,AGTCAACC,-0.007 ± 0.035
15,GCGCAGAA,-0.0316 ± 0.067
16,AAGTATCT,-0.264 ± 0.021
17,CGCTCAAC,-0.116 ± 0.022
18,AGCAGGAT,-0.147 ± 0.033
19,ACCCCCGC,-0.113 ± 0.093
20,ACATTCGA,-0.164 ± 0.02
21,ATAATAAT,-0.24 ± 0.091
22,GTTGGGAA,0.011 ± 0.035

row,Sequence,PBM E-score of 8-mer
1,GAACAGAC,-0.101 ± 0.044
2,GGGATATA,-0.124 ± 0.0044
3,AGCCGGGC,-0.205 ± 0.045
4,GAGCAGGC,-0.108 ± 0.058
5,ATCATAAG,0.00266 ± 0.074
6,TAGGCCAA,-0.298 ± 0.065
7,AGCCCCGA,-0.174 ± 0.041
8,ATTCGATC,-0.214 ± 0.0051
9,GTGGGTAA,-0.00386 ± 0.027
10,GACAGGCA,-0.0532 ± 0.041
11,ACTGAAGT,-0.11 ± 0.0012
12,AAAGTATT,-0.0791 ± 0.099
13,CGGTGTAA,0.131 ± 0.037
14,CACGCGCC,0.228 ± 0.024
15,GGTATAGA,-0.262 ± 0.027
16,TTATGGAA,-0.0117 ± 0.0076
17,GTCAGAGA,-0.0902 ± 0.085
18,ATGCAAAC,-0.106 ± 0.061
19,ATTGACGA,0.0689 ± 0.061
20,CAGCCTGA,-0.112 ± 0.04
21,CCCATAAA,-0.107 ± 0.0037
22,ACTTTTAC,-0.0251 ± 0.02

row,Sequence,PBM E-score of 8-mer
1,ACAGGAGT,0.016 ± 0.00085
2,AGCACGGC,0.0625 ± 0.026
3,ACTTAGAA,-0.0174 ± 0.056
4,GAGTCCCC,-0.222 ± 0.01
5,ATCCAATC,-0.137 ± 0.054
6,TACGCTGA,-0.202 ± 0.051
7,AGAAATAA,0.0198 ± 0.018
8,AATGGTGA,0.11 ± 0.02
9,GCCATAGA,-0.0661 ± 0.067
10,CGGGCTGA,-0.115 ± 0.075
11,AGACTTAA,-0.105 ± 0.0092
12,AATCTTAA,-0.162 ± 0.061
13,CGGCGAAA,-0.1403 ± 0.00085
14,CGCCTGTA,0.101 ± 0.06
15,ATCCGGAG,-0.126 ± 0.02
16,AAACAATG,0.0542 ± 0.0052
17,AATAAATG,-0.177 ± 0.031
18,AGAAGTCG,0.113 ± 0.02
19,CATGTCTA,0.0713 ± 0.011
20,GTGGGCTA,-0.206 ± 0.087
21,CCCACCGG,-0.143 ± 0.047
22,GTGGATGA,-0.174 ± 0.05

row,Sequence,PBM E-score of 8-mer
1,ACATGCAT,-0.0914 ± 0.013
2,AAGCCGTC,0.0552 ± 0.029
3,GAACCTGC,-0.162 ± 0.0065
4,AGATTTAC,-0.0888 ± 0.039
5,ACTGTCAT,0.163 ± 0.037
6,AAGAACAA,-0.22 ± 0.012
7,AAACAGGC,-0.177 ± 0.0041
8,GGAGAGAA,0.0991 ± 0.033
9,ATGGTACC,-0.0911 ± 0.059
10,TGCACACA,0.093 ± 0.022
11,CTTCGATC,-0.112 ± 0.023
12,CACAACGG,0.219 ± 0.045
13,CATGGCCG,-0.242 ± 0.11
14,GATCCGTA,-0.00694 ± 0.091
15,CCTTGAGC,-0.11 ± 0.019
16,ATGGAAGG,-0.139 ± 0.044
17,CAAGAATA,-0.222 ± 0.0028
18,ATCTACGC,0.0498 ± 0.0073
19,TAAAAGAA,-0.0479 ± 0.0075
20,TGGTAGAA,-0.00365 ± 0.062
21,CCCTACCG,-0.151 ± 0.071
22,CATACTGC,-0.0383 ± 0.049

row,Sequence,PBM E-score of 8-mer
1,CAGGCGGG,-0.0145 ± 0.026
2,AACAGTCA,0.0868 ± 0.012
3,ACAGTCAT,-0.0227 ± 0.012
4,ACCGCTCC,-0.244 ± 0.031
5,AGTGGCAC,0.334 ± 0.008
6,CGGTAACC,-0.143 ± 0.04
7,GTTCAAAC,-0.13 ± 0.059
8,ATGAAGAG,-0.245 ± 0.035
9,CTTCGAAA,-0.0538 ± 0.053
10,AAGTGAGG,0.2407 ± 0.0011
11,ATGACTCA,-0.058 ± 0.044
12,CCATGCCC,-0.148 ± 0.011
13,CCTGGATC,-0.1384 ± 0.00035
14,ATCTTCTC,-0.04412 ± 4.2e-05
15,CTGCGCAG,0.0276 ± 0.062
16,CTCACGCA,0.306 ± 0.019
17,CGAACCTA,-0.191 ± 0.074
18,ACTTGTTA,0.372 ± 0.044
19,ACCCGCAA,-0.0362 ± 0.0055
20,ATTATAAC,0.0889 ± 0.037
21,CTGGGCCA,-0.217 ± 0.042
22,GCGACTGA,-0.0494 ± 0.013
